According to PubChem BioAssay AID652104 (National Center for Advancing Translational Sciences (NCATS), 2013):
Out of some 410,000 compounds screened, about 7,200 (1.8%) were called active. The shares of active, inactive and inconclusive entries below differ from those in the screen. Calls follow the shape of the dose curve; as a rule, active = well fitted activation curve with a large enough effect; inconclusive = small, poorly fitted or top-dose-only effect, or another doubt; inactive = no such curve, though single readings can be large or run the other way. No potency is given beside an inconclusive call; the fits are too rough.

Assay: qHTS of TDP-43 Inhibitors; also: nearly all actives have a fitted effect of over 50% in size; as to growth rescue (activation): % of control where 0% means no effect
Settings: TDP-43 expressing yeast growth rescue, BacTiter-Glo, 24 h; growth rescue (activation): at 46.1 µM (top of the series) unless noted
Summary of the method: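 Galactose-induced TDP-43 yeast, OD600=0.02, compound pinned; 24 hr, 30 deg C; BacTiter-Glo luminescence for growth. Inhibitors of TDP-43 toxicity read as activators.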
Potency is read from the fitted curve at half-maximal effect; tags tell the direction and shape of the fitted curve.

| Compound | Potency | growth rescue (activation) |
| --- | --- | --- |
| COc1ccc(-c2noc(CCCc3ccccc3)n2)cc1OC | inconclusive [activator, partial curve, poor fit] |  |
| CC(C)c1ccc(NC(=O)c2ccc(Cn3nc(N4CCN(c5ccccc5)CC4)ccc3=O)o2)cc1 |  | inactive: 4.85% |
| COc1cccc(CCC(=O)N2CCC(n3nccc3NC(=O)CC(C)C)CC2)c1 |  | inactive: -12.3% |
| COc1cccc(N2C(C(C)=O)=NN(c3ccccc3)C2c2ccc(N3CCOCC3)cc2)c1 (configuration not stated) |  | inactive: -24.6% |
| COc1ccc(CNC(=O)c2cccc(N3CCCS3(=O)=O)c2)cc1OC |  | inactive: 14.8% |
| O=C(c1ccc(-c2ccc(Cl)cc2)o1)N1CCN(S(=O)(=O)c2cccs2)CC1 | inconclusive [activator, partial curve] |  |
| COc1ccc(NC(=O)CN2C(=O)C3(SCC(=O)N3c3ccccc3)c3ccccc32)cc1Cl (configuration not stated) |  | inactive: 3.34% |
| COc1ccc(/C=C2\CCc3ccccc3C2=O)cc1OC | inconclusive [activator, single point] |  |
| Cc1ccc(C)c(N2C(=O)N(C)c3ccccc3S2(=O)=O)c1 | inconclusive [activator, partial curve] |  |
| Cc1ccc(C(=O)Nc2cccc3cccnc23)cc1C | inconclusive [activator, single point] |  |
| Cc1ccc(NS(=O)(=O)c2ccc3[nH]c4c(c3c2)CCCCCC4)cc1 | active: 14.1 µM |  |
| c1ccc(CCNc2nc(-c3ccncc3)cs2)cc1 | inconclusive [activator, single point] |  |
| CCC(=O)N1CCc2cc(CNS(=O)(=O)c3ccc(Br)s3)ccc21 | active: 11.2 µM |  |
| O=C(Nc1ccccc1)OCCc1ccccc1 | active: 35.5 µM |  |
| COc1ccc2c(c1)c(=O)oc1cc(OCC(=O)N3CCC(C)CC3)ccc12 | inconclusive [activator, single point] |  |
| Cc1cccc(Cn2cnc3c(oc4ccccc43)c2=O)c1 |  | inactive: 9.25% [at 9.22 µM] |
| Cn1c(-c2c(N)n(C3CCCC3)c3nc4ccccc4nc23)nc2ccccc21 | active: 12.6 µM |  |
| CN(C)S(=O)(=O)Oc1ccsc1C(=O)Nc1cccc(Cl)c1 | active: 12.6 µM |  |
| COCCN1C(=O)COc2ccccc2C1C(=O)Nc1c(C)cccc1C (configuration not stated) | inconclusive [activator, partial curve] |  |
| Cn1cc(CN2CCC[C@H]2CO)c(-c2cccc(Cl)c2)n1 | inconclusive [activator, single point] |  |
| Cc1nn(-c2ccc([N+](=O)[O-])cc2)c(N)c1-c1ccccc1 | inconclusive [activator, single point] |  |
| COCCNC(=O)c1c[nH]c2ccc(S(=O)(=O)N3CCOCC3)cc2c1=O |  | inactive: -6.43% |
| NS(=O)(=O)c1ccc(NC(=O)COC(=O)c2c3c(nc4ccccc24)/C(=C\c2ccc4c(c2)OCO4)CCC3)cc1 | inconclusive [activator, single point] |  |
| O=C(O)/C=C/c1cn(-c2ccccc2)nc1-c1ccc2c(c1)OCCO2 |  | inactive: 0.899% |

| Compound | Potency | growth rescue (activation) |
| --- | --- | --- |
| CCc1cccc(NC(=O)C(NS(=O)(=O)c2ccc3nc(C)sc3c2)C(C)C)c1 (configuration not stated) |  | inactive: 19.2% |
| O=C(N/N=C/c1cc(Cl)ccc1O)c1ccc(Br)cc1 |  | inactive: -12% |
| CCOc1ccccc1NC(=O)CCc1c(C)nc2c(c(C)nn2-c2ccccc2)c1C |  | inactive: 17.8% |
| C/C(=N/Nc1ccc([N+](=O)[O-])cc1)c1c[nH]c2ccccc12 | inconclusive [activator, partial curve, poor fit] |  |
| COc1cccc2c1C(=N)c1c(O)c3c(c(O)c1C2=O)CC(O)(C(C)=O)CC3OC1CC(N)C(O)C(C)O1 (configuration not stated) |  | inactive: -63.2% |
| O=[N+]([O-])/C=C\c1ccc(N2CCCC2)c(F)c1 |  | inconclusive: -58.5% [activator] |
| COc1ccc(Nc2c(-c3cc4ccccc4o3)nc3nc(C)cc(C)n23)cc1 | inconclusive [activator, partial curve, poor fit] |  |
| CCOc1ccccc1CNC(=O)c1cnc2sc(N3CCOCC3)nn2c1=O | inconclusive [activator, partial curve] |  |
| CCN(CC)S(=O)(=O)c1ccc(N2CCc3ccccc3C2)nc1 | inconclusive [activator, single point] |  |
| Cn1c(N)c(C(=O)CSc2nnc(-c3cccs3)n2C2CC2)c(=O)[nH]c1=O | inconclusive [activator, partial curve, poor fit] |  |
| COc1ccc(S(=O)(=O)N2CCCCC2)cc1NC(=S)Nc1cccc(Cl)c1C |  | inactive: -6.29% |
| COc1ccc(C(C(=O)NC(C)(C)C)n2c(=O)c(-c3cc4ccccc4[nH]3)nc3ccccc32)cc1 (configuration not stated) | inconclusive [activator, partial curve] |  |
| Cn1nc(C(=O)NCc2ccc(F)cc2)c2ccccc2c1=O | inconclusive [activator, single point] |  |
| CNc1nc(CCN2C(=O)c3ccccc3C2=O)cs1 | inconclusive [activator, partial curve] |  |
| O=C(c1ccncc1)N(c1ccc2oc3c(c2c1)CCCC3)S(=O)(=O)c1ccc(F)cc1 | inconclusive [activator, partial curve] |  |
| COc1ccc(Nc2cnn(-c3nc4ccccc4s3)c(=O)c2Cl)cc1 | active: 8.91 µM |  |
| CC1CCCN(c2nc3nonc3nc2N2CCCC(C)C2)C1 (configuration not stated) | inconclusive [activator, single point] |  |
| Cc1ccc(S(=O)(=O)Nc2cccc3cccnc23)cc1 | active: 35.5 µM |  |
| O=C(Nc1ccc2oc(-c3ccccc3)nc2c1)c1cccnc1 |  | inactive: -20.4% |
| Cc1nc(C(=O)Nc2cc(Cl)ccc2Cl)nn1-c1cc(OC(C)C)c(Cl)cc1Cl |  | inactive: 10.3% |
| CSc1nc2c(ccc3ccccc32)o1 | inconclusive [activator, partial curve] |  |
| O=C(COc1ccc(C2SCCS2)cc1)NNC(=O)C(Cl)Cl |  | inactive: -13% |
| COc1cccc(C2=CC(c3ccccc3F)n3ncc(C(=O)Nc4ccc(F)cc4)c3N2)c1 (configuration not stated) | active: 22.4 µM |  |
| O=C(CSc1nnc2scc(-c3ccc(Cl)cc3)n12)Nc1ccc(F)cc1 |  | inactive: 14% |

| Compound | Potency | growth rescue (activation) |
| --- | --- | --- |
| CCOCCCNC(=O)C(c1ccc(C)cc1)N(Cc1ccc2c(c1)OCO2)C(=O)c1ccccc1O (configuration not stated) |  | inactive: 7.48% |
| COc1cc2c(cc1OC)-c1cc3ccc(OC)c(OC)c3c[n+]1CC2 | inconclusive [activator, full curve] |  |
| CSc1ncccc1C(=O)OCC(=O)Nc1cc(C(F)(F)F)ccc1N1CCOCC1 | inconclusive [activator, single point] |  |
| Cc1ccc(NC(=O)N2CCCC2c2cccs2)cc1 (configuration not stated) | inconclusive [activator, partial curve] |  |
| COC(=O)Cc1c[nH]c2cccc(OCC(O)CN(Cc3ccc([N+](=O)[O-])cc3)C(C)(C)C)c12 (configuration not stated) |  | inactive: -5.39% |
| O=C1CC(C(F)(F)C(F)(F)C(F)(F)F)=Nc2ccccc2N1 | inconclusive [activator, single point] |  |
| CC(=O)c1c(C)nn(-c2ccccc2)c1C |  | inactive: 8.13% |
| CC(=O)c1cccc(-c2ccnc3c2CC(C(=O)Nc2ccc(Cl)c(C(F)(F)F)c2)O3)c1 (configuration not stated) | active: 15.8 µM |  |
| COc1ccc(C(=O)C(OP(=O)(OC)OC)c2ccccc2OC)cc1 (configuration not stated) | inconclusive [activator, full curve, poor fit] |  |
| CCC(=O)c1ccc(OCc2ccccc2)c(OC)c1 | active: 11.2 µM |  |
| CCn1c(CCNC(=O)c2ccc(OC)cc2)nnc1SCc1ccc(Cl)c(Cl)c1 | inconclusive [activator, single point] |  |
| Cc1cc(C(=O)N2CCN(c3cc(Cl)ccc3C)CC2)on1 | inconclusive [activator, single point] |  |
| CC(=O)/C(=N/Nc1ccc([N+](=O)[O-])cc1)N1CCCc2ccccc21 | inconclusive [activator, single point] |  |
| CCCCNc1nc(-c2ccccc2)cc(C(F)(F)F)c1C(N)=O | inconclusive [activator, single point] |  |
| Nc1nccc(SCc2ccc(Cl)cc2Cl)n1 | inconclusive [activator, partial curve] |  |
| Cc1ccc(CN(C)C(=O)c2ccccc2Sc2ccccc2C#N)cc1 | inconclusive [activator, single point] |  |
| O=C(NNc1nc2c(F)cccc2s1)c1cc(=O)c2ccccc2o1 | inconclusive [activator, partial curve] |  |
| Cc1ccc(-n2nnnc2-c2ccco2)cc1 | inconclusive [activator, full curve, poor fit] |  |
| COc1ccc(-c2ncccc2OC(=O)C23CC4CC(CC(C4)C2)C3)cc1OC | inconclusive [activator, partial curve] |  |
| Cc1ccc(C(=O)NC(=S)Nc2ccccc2N2CCCC2)cc1[N+](=O)[O-] | inconclusive [activator, partial curve] |  |
| O=C(Nc1nc(-c2ccco2)cs1)c1ccccc1 | active: 12.6 µM |  |
| CCCCn1c(N)c(N(CCOC)C(=O)c2ccc(Br)o2)c(=O)[nH]c1=O | inconclusive [activator, partial curve] |  |
| C=CCOc1ccc(/C=N/NC(=O)C(C)Sc2ccccn2)cc1OCC (configuration not stated) |  | inactive: 15.6% |
| C=CCc1ccc(O)c(-c2ccc(O)c(CC=C)c2)c1 |  | inconclusive: -91.6% [activator] |
